This assay relates to Mtb. The experiment in a line: 14C-labeled [19F]FDT incorporation into Mtb lipids. As to conditions: Mtb culture, 24 h.

Structures are written as SMILES.

Consider `O[14CH2][14CH]1O[14CH](O[14CH]2O[14CH]([14CH2]O)[14CH](O)[14CH](O)[14CH]2F)[14CH](O)[14CH](O)[14CH]1O` (stereo not shown) [[U-^14C, ^19F]FDT], for which the “incorporation into Mtb lipids (TLC)” value is on record as “incorporation into less polar, lipidic species”.

(Values after publication PMC11211441, “Distributable, metabolic PET reporting of tuberculosis” (Nature Communications, 2024).)
